The text below walks through data of PubChem BioAssay (NCI).

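Results reflect a 48-hour exposure of cells in 96-well plates to compound at five concentrations. GI50 is the concentration that inhibits growth by half. TGI is the concentration that stops growth completely.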

In the assay the test system is NCI-H322M lung. As to the kind of experiment: inhibition of tumour cell growth, NCI panel, 48 h.
With `Clc1ccc2c(N/N=C/c3c[nH]c4ccccc34)ccnc2c1`, the GI50 is 1.73 µM and the TGI came out at 3.12 µM.

Turning to `COc1cc2c3c(n(CCCNC4CCCCC4)c(=O)c2cc1OC)-c1cc2c(cc1C3=O)OCO2`, the GI50 was 17.5 µM and the TGI came out at 48.2 µM.

On to `Clc1ccc2oc3c(NCCCN4CCOCC4)c4ccccc4nc3c2c1`, for which the GI50 is 1.76 µM and the TGI turned out to be 8.8 µM.
